# Results: PubChem BioAssay AID463173 (ICCB-Longwood Screening Facility, Harvard Medical School, 2010)
# About 4,300 (8.3%) of roughly 52,000 compounds were called active. No stated cut-off is given here; in the data, active means survival mostly below about 52% (no sharp cut-off); inactive means mostly above about 56%. This is one part of the list.
# Tested on: DeltatarO mutant
# Test: S. aureus survival, RN4220 and DeltatarO strains – OD600, teichoic acid synthesis inhibitors, primary screen (AID 463173)
# Settings: S. aureus RN4220 wild type/DeltatarO growth, OD600, 18 h, active compounds read low, screened at 18.75 µg/mL (by protocol)
row,Structure (SMILES),survival
1,CCc1ccccc1NC(=O)C(=O)NCCc1sc(-c2cccc(F)c2)nc1C,inactive: 91%
2,Cc1ccc(CNC(=O)c2ccc(-c3nc(CS(=O)(=O)c4ccc(C)cc4)c(C)o3)cc2)cc1,inactive: 70%
3,CCCCNCc1cccn1-c1ccccc1,inactive: 100%
4,O=C(c1cccs1)N1CCC(Cc2ccccc2)CC1,inactive: 86%
5,COc1ccc(C(=O)NCC(c2ccco2)S(=O)(=O)c2cccs2)cc1OC (stereo unspecified),inactive: 124%
6,O=C1CCN(C(=O)/C=C/c2ccccc2)c2ccccc21,inactive: 88%
7,Cc1ccnc(NS(=O)(=O)c2ccc(NC(=O)c3nc(SC(C)C)ncc3Cl)cc2)n1,inactive: 58%
8,CC(C)Oc1ccc(CNC(=O)Cn2ncn3nc(-c4cccs4)cc3c2=O)cc1,inactive: 83%
9,COC(=O)c1ccccc1-n1c(CCC(=O)O)ccc1-c1ccccc1,inactive: 180%
10,COc1cccc(CNC(=O)c2ccc3c(c2)nc2n3CCC(C)C2)c1OC (stereo unspecified),inactive: 77%
11,CCOC(=O)Cc1cc(=O)[nH]c(/N=C(\N)Nc2cccc(Cl)c2)n1,inactive: 90%
12,COc1ccc(CC(C(=O)O)c2ccccc2)cc1 (stereo unspecified),inactive: 65%
13,CCOC(=O)C1CCCN(C(=O)c2[nH]c3ccccc3c2Sc2ccc(Cl)cc2)C1 (stereo unspecified),active: 37%
14,Nc1c(C(=O)Nc2cccc(C(F)(F)F)c2)c2ccccn2c1C(=O)c1ccccc1,inactive: 77%
15,CCOc1ccc(NC(=O)CN(C)S(=O)(=O)c2cnc[nH]2)cc1,inactive: 103%
16,O=C(CSc1nnc2[nH]c(=O)cc(-c3ccccc3)n12)Nc1cc(C(F)(F)F)ccc1Cl,inactive: 74%
17,COc1ccc(NC(=O)NC(C)c2c(-n3cccc3)sc3c2CCN(C)C3)c(OC)c1 (stereo unspecified),inactive: 70%
18,COC(=O)c1cc(NC(=O)c2ccc(-c3ccc(Cl)cc3Cl)o2)cc(C(=O)OC)c1,inactive: 53%
19,COc1ccc(NC(=O)CCc2c(C)nc3c(-c4ccc(F)cc4)c(C)nn3c2C)c(OC)c1,inactive: 65%
20,Cc1ccccc1CN1CCCN(CC(=O)Nc2ccc3c(c2)OCCO3)S1(=O)=O,inactive: 87%
21,CCOC(=O)c1noc2nc(C)n(Cc3ccc([N+](=O)[O-])cc3)c(=O)c12,inactive: 88%
22,Cc1cccc(Cn2nnc3c(=O)[nH]c(C4CCN(C(=O)c5ccc(F)cc5)CC4)nc32)c1,active: 28%
23,CN1CCN(C(CNC(=O)c2ccccc2)c2ccc3c(c2)OCO3)CC1 (stereo unspecified),inactive: 76%

row,Structure (SMILES),survival
1,CCn1c(=O)cc(SCC(=O)N2CCN(c3ccccc3F)CC2)c2ccccc21,inactive: 74%
2,COc1ccccc1NC(=O)c1cc(S(=O)(=O)NCCC2=CCCCC2)ccc1F,inactive: 60%
3,CC(=O)Nc1nonc1-c1nc2ccccc2n1Cc1ccccc1Br,inactive: 81%
4,COc1cc2c(cc1OC)C(COc1ccc3c(C)cc(=O)oc3c1)N(C(=O)CC(C)C)CC2 (stereo unspecified),inactive: 72%
5,Cc1ccc2oc(-c3cc(NC(=O)/C=C/c4ccco4)ccc3Cl)nc2c1,active: 40%
6,Brc1ccc2nc(SCCOc3ccccc3)[nH]c2c1,active: -1%
7,COc1c(Cl)cc(Cl)cc1/C=C(\C#N)C(N)=O,inactive: 91%
8,Cc1ccc2c(c1)N(C(=O)Nc1cccc3c1CCCC3)CC(C)O2 (stereo unspecified),inactive: 56%
9,Cc1ccsc1CN1CCc2nc(N3CCN(c4ccccc4F)CC3)ncc2C1,inactive: 76%
10,COc1cc(Cl)c(C)cc1NC(=O)c1cnc2c(-c3cccc(C)c3)c(C)nn2c1C,inactive: 55%
11,CNC(=O)c1ccc(CSc2nc3ccncc3n2Cc2ccc(C)cc2)cc1,inactive: 79%
12,CCCN(C(=O)Cn1cc(S(=O)(=O)N2CCN(c3ccccc3F)CC2)c2ccccc2c1=O)c1cccc(C)c1,inactive: 88%
13,CC(C)CN(CCNC(=O)c1cc(-c2ccc(Cl)s2)nc2ccccc12)CC(C)C,inactive: 60%
14,CCOc1ccc(OCC)c(Nc2nc3ccc(Cl)cc3n3cnnc23)c1,inactive: 65%
15,COCC(O)CNc1ccccc1 (stereo unspecified),inactive: 96%
16,COc1cccc(CNC(=O)Cn2c(C)c3cnn(-c4ccccc4)c(=O)c3c2C)c1,inactive: 94%
17,CCC(Oc1ccccc1)C(=O)N1CCOCC1 (stereo unspecified),inactive: 80%
18,CNC(=O)C1CCN(c2nc3ccccc3nc2C(F)(F)F)CC1,inactive: 92%
19,CCc1ccc(NC(=O)N2CCN(C(=O)c3nsc4ccccc34)CC2)cc1,inactive: 87%
20,CN(C(=O)CSc1nnc(-c2ccc([N+](=O)[O-])cc2)o1)c1ccccc1,inactive: 69%
21,Cc1ccc(CNC(=O)CCCn2c(=O)c3ccccc3n(Cc3ccc(Cl)cc3)c2=O)cc1,inactive: 67%
22,COc1ccc(CCNC(=O)Cn2cc(C(=O)c3ccc(F)cc3)c(=O)c3ccc(C)nc32)cc1OC,inactive: 129%
23,COCCCNC(=O)C1CCCN(c2nn3cc(-c4ccc(C)cc4)nc3s2)C1 (stereo unspecified),inactive: 124%

row,Structure (SMILES),survival
1,CC(C)(C)C(=O)Cn1c(=O)n(-c2ccc(Cl)c(Cl)c2)c(=O)c2c3c(sc21)CCCC3,inactive: 112%
2,COCc1cc(C)nc2sc(C(=O)Nc3cc(C)ccc3F)c(N)c12,inactive: 66%
3,Cc1cc(C)cc(N2CCn3c2nc2c3c(=O)n(CCCc3ccccc3)c(=O)n2C)c1,inactive: 67%
4,COc1ccc(C(=O)NCCNc2nc3c(C)cccc3cc2C#N)cc1OC,inactive: 67%
5,Cc1cc(C)nc(NS(=O)(=O)c2ccc(NC(=O)COc3ccc(C(C)(C)C)cc3)cc2)n1,inactive: 56%
6,CN(C)c1ccc(/C=C2/SC(=Nc3ccccc3)NC2=O)cc1,inactive: 111%
7,CCOC(=O)CC(NC(=O)N1CCC(CN2CCC(C)CC2)CC1)c1ccccc1 (stereo unspecified),inactive: 94%
8,CC(=O)NC1CCN(C(=O)Nc2ccccc2)CC1,inactive: 91%
9,O=S(=O)(c1ccccc1)N1CCN(Cc2ccccc2)CC1,inactive: 104%
10,CC(C)Cn1cc(NC(=O)N2CCN(c3ccccc3F)CC2)c2ccccc2c1=O,inactive: 101%
11,Cc1cccc(C)c1Nc1c(-c2ccsc2)nc2ccc(Cl)cn12,inactive: 80%
12,CCc1ccccc1NC(=O)NCc1ccc2c(c1)CCN2C(=O)c1ccccc1,inactive: 125%
13,COC(=O)c1c(-c2ccc(Cl)cc2)noc1N1CCN(c2cccc(C(F)(F)F)c2)CC1,inactive: 94%
14,CCCn1ccc2c(OCC(=O)NCc3ccccc3Cl)cccc2c1=O,inactive: 124%
15,Cc1cc2c(c(=O)o1)C(C(C)C)C(C#N)=C(N)O2 (stereo unspecified),inactive: 79%
16,Cc1nn(C)c2c1c(-c1ccccc1)cc(=O)n2C(C)C(=O)NCc1ccc(F)cc1 (stereo unspecified),inactive: 76%
17,O=C1CC(c2ccccc2)Cc2[nH]c(=O)c(-c3nc(-c4ccc(Cl)cc4)cs3)cc21 (stereo unspecified),inactive: 72%
18,CCN1CCN(C(c2cccc(F)c2)c2c(O)cc(C)n(Cc3ccco3)c2=O)CC1 (stereo unspecified),inactive: 76%
19,Cc1ccc(-n2nnnc2CNC(=O)C(C)C)cc1C,inactive: 105%
20,CCSc1nnc2c(n1)OC(CC)N(C(C)=O)c1ccccc1-2 (stereo unspecified),inactive: 128%
21,COc1ccc(OC)c(CCNC(=O)c2cnn(-c3ccccc3)c2C2CCN(C(=O)OC(C)(C)C)CC2)c1,inactive: 73%
22,COc1ccc(-c2cn3nc(N4CCCC(C(=O)NCc5ccccc5Cl)C4)sc3n2)cc1 (stereo unspecified),inactive: 101%
23,COc1cc(OC)cc(N2CCN(S(=O)(=O)c3ccc(-n4cnnn4)cc3)CC2)c1,inactive: 72%

row,Structure (SMILES),survival
1,O=c1c(N2CCN(c3cccc(C(F)(F)F)c3)CC2)csc2ccc(Cl)cc12,inactive: 95%
2,Cc1ccccc1CSc1nc2c(sc3ccccc32)c(=O)n1CCCOC(C)C,inactive: 130%
3,COC(=O)c1cc2oc3ccccc3c2n1Cc1cc(C)ccc1C,inactive: 130%
4,Cc1cccc(-n2ncc3c(NC4CCCC4)ncnc32)c1,inactive: 69%
5,COc1cccc(CNC(=O)C2CCN(c3nnc(-n4c(C)ccc4C)s3)CC2)c1,inactive: 89%
6,CCc1ccc(-n2nc3ccc(NC(=O)c4ccc(C#N)cc4F)cc3n2)cc1,inactive: 78%
7,Fc1ccc(-c2cn3cc(Cc4ccc(Cl)cc4)sc3n2)cc1,inactive: 55%
8,CCOc1ccc(-c2nnc(SCC(=O)NCc3ccc(C)cc3)nc2-c2ccc(OCC)cc2)cc1,inactive: 106%
9,CC1(C)Oc2ccc(C(=O)Nc3ccccc3)cc2N(CC(=O)N2CCCC2)C1=O,inactive: 103%
10,S=C(Nc1ccccn1)c1ccccc1,inactive: 76%
11,CCOc1ccccc1C1CC(=O)Oc2c1c(=O)n(C)c1ccccc21 (stereo unspecified),inactive: 57%
12,Cc1ccc(Cl)cc1NC(=O)Cn1c(=O)c2ccccc2n2nncc12,inactive: 93%
13,CCC(C(=O)Nc1cc(-c2nc3cccnc3s2)ccc1C)c1ccccc1 (stereo unspecified),active: 37%
14,O=C(Cn1c(SCC(=O)Nc2nccs2)nc2ccccc21)NCc1ccccc1,inactive: 78%
15,CC(=O)c1ccc(N2CCN(S(=O)(=O)c3ccc4[nH]c5c(c4c3)CCCC5)CC2)cc1,inactive: 64%
16,O=c1c2c(-c3ccc(Cl)cc3)ccnc2[nH]n1-c1ccccc1,inactive: 67%
17,O=C(NCCC1=CCCCC1)c1ccc2c(c1)ncn2-c1ccc(F)c(F)c1,inactive: 66%
18,COc1ccc(OC)c(C2c3c(oc4ccc(C)cc4c3=O)C(=O)N2CCCN(C)C)c1 (stereo unspecified),inactive: 73%
19,CCc1ccc(Nc2nc(N)nc(CSc3nc4ccccc4s3)n2)cc1,active: 21%
20,CCN(Cc1ccccc1)Cc1c(O)ccc2c(=O)c(-c3ccccc3Cl)c(C(F)(F)F)oc12,inactive: 74%
21,CC(=O)Nc1cccc(NC(=O)c2c(-c3ccccc3)c(-c3ccccc3)nn(C)c2=O)c1,inactive: 53%
22,CCCN(CCC)C(=O)CSc1nc2sc3c(c2c(=O)n1-c1ccccc1)CCN(C(C)=O)C3,inactive: 178%
